The results in this text go back to PMC7110144.

No constants are given. Whether binding was seen depends on the method and setting. Tags and fused reporters may be left off the sequences shown.

The target of this assay is T1, His-CENP-C(1264-1411 L1357E/M1407E) (Drosophila melanogaster) (UniProt Q9VHP9).
T1 sequence: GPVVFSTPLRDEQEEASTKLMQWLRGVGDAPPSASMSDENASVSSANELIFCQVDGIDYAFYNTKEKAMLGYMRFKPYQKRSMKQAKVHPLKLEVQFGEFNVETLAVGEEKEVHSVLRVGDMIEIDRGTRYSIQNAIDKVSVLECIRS
In words: SEC-MALS; Superdex 200 increase 10/300 GL, 50 mM HEPES pH 8.0, 300 mM NaCl, 1 mM TCEP, 22°C; both purified.

B1: His-CENP-C(1264-1411 L1357E/M1407E) (domain or fragment, UniProt Q9VHP9 1264-1411)
chain: GPVVFSTPLRDEQEEASTKLMQWLRGVGDAPPSASMSDENASVSSANELIFCQVDGIDYAFYNTKEKAMLGYMRFKPYQKRSMKQAKVHPLKLEVQFGEFNVETLAVGEEKEVHSVLRVGDMIEIDRGTRYSIQNAIDKVSVLECIRS
With B1, the binding result is given as “no binding”.
